# In PubChem BioAssay AID504333 (National Center for Advancing Translational Sciences (NCATS), 2011):
# In all, about 360,000 compounds went through this assay and about 16,000 (4.4%) were called active. The inconclusive results got no clear call from the source; some entries with a clear call stand among them for comparison. Calls follow the shape of the dose curve; as a rule, active = well fitted inhibition curve with a large enough effect; inconclusive = small, poorly fitted or top-dose-only effect; inactive = no such curve, though single readings can be large or run the other way. A potency beside an inconclusive call is a rough fit, not a confirmed value.
# Target: Bromodomain adjacent to zinc finger domain protein 2B (Homo sapiens) (UniProt Q9UIF8)
# UniProt Q9UIF8, sequence (Q9UIF8 whole entry, looked up, the tested form may be a part): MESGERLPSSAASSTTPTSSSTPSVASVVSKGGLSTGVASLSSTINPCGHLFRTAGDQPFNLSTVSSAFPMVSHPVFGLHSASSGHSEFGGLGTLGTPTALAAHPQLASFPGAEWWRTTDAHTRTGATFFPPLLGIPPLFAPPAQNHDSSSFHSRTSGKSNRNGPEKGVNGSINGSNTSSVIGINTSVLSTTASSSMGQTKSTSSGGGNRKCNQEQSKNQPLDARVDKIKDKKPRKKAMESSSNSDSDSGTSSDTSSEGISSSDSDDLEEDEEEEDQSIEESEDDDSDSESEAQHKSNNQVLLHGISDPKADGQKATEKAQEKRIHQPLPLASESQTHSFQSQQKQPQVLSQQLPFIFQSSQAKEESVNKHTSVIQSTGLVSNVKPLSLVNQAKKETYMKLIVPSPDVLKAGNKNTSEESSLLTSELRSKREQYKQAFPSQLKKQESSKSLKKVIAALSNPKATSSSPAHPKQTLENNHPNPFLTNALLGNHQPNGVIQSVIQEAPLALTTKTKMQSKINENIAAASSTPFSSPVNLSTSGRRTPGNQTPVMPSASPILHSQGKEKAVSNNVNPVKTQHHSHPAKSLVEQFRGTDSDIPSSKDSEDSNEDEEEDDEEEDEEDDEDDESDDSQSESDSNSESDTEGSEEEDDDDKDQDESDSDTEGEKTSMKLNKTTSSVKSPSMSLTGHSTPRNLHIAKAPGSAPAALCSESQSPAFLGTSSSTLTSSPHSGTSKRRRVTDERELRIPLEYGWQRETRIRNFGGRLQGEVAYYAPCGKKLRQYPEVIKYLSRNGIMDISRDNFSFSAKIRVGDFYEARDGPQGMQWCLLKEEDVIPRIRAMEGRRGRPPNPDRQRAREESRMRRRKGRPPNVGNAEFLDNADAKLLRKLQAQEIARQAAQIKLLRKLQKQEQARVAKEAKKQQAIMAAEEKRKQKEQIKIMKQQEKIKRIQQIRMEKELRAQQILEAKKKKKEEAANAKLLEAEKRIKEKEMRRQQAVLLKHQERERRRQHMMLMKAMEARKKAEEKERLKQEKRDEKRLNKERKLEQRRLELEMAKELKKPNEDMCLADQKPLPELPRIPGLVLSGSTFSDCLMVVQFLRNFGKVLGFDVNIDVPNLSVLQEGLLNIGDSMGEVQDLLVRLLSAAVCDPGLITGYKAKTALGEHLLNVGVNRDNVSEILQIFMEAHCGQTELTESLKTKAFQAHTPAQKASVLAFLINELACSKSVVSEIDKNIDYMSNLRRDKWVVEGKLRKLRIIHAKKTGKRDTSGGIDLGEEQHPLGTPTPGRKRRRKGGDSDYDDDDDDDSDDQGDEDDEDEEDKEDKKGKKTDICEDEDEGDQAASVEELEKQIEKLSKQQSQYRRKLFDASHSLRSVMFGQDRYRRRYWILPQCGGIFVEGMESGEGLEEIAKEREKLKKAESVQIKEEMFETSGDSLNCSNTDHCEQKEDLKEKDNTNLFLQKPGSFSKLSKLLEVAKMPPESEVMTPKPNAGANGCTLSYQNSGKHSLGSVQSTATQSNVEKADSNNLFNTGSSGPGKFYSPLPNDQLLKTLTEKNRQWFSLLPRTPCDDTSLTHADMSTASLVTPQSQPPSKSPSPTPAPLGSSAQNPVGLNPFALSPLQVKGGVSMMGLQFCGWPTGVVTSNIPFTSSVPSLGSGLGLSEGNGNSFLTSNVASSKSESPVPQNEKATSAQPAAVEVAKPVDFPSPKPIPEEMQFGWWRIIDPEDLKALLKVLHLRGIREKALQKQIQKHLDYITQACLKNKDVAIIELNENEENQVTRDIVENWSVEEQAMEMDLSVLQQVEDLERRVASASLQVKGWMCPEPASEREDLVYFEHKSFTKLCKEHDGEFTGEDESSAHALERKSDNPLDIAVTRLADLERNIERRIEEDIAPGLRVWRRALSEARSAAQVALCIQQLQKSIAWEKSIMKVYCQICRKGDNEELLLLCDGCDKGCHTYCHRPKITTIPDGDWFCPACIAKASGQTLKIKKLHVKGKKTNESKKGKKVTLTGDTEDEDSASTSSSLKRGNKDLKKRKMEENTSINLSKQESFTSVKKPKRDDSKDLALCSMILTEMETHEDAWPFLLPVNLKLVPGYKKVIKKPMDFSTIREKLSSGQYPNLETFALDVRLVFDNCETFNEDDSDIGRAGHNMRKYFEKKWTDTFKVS
# Test: qHTS Assay for Inhibitors of BAZ2B; also: nearly all actives have a fitted effect of over 60% in size
# Settings: AlphaScreen BAZ2B-H3K14Ac peptide displacement; series mostly up to 114 µM
# In short: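 Inhibition is scored as reduced AlphaScreen emission. The BAZ2B/b-H3(5-23)K14Ac complex (50 nM each) in PBS pH 7.4, 0.01% Tween-20 meets compound (up to 110 uM) for 30 min at RT before bead addition.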
# Potency is read from the fitted curve at half-maximal effect; tags tell the direction and shape of the fitted curve.
row,SMILES,Potency
1,CC(Sc1nnc(-c2cccnc2)n1C)C(=O)N1CCOCC1 (stereo not given),inactive
2,COc1ccc2c(c1OC)C(=O)N1N=C(c3ccc(F)cc3)CC21 (stereo not given),inactive
3,CCOc1ccc(C(=O)NCCn2cc(SCC(=O)Nc3cc(C)on3)c3ccccc32)cc1,active: 79.4 µM
4,Cc1ccc(OCCNC(=O)C2CC(=O)N(Cc3ccccc3)C2)cc1 (stereo not given),inactive
5,O=C(Nc1ccc(N2CCCC2)c(Cl)c1)c1cccs1,active: 44.7 µM
6,CNCCOc1ccccc1C(C)(C)C,"inconclusive: 63.1 µM [inhibitor, single point]"
7,CCOC(=O)/C=C/S(=O)(=O)c1ccc(NC(C)=O)cc1,inactive
8,CC(=O)Oc1cc2c3c(c1)/C(=C1/SC(=S)NC1=O)C(=O)N3C(C)(C)C=C2C,active: 7.94 µM
9,Cc1cc(C)n(CCCNCC(O)c2ccccc2)n1 (stereo not given),"inconclusive: 89.1 µM [inhibitor, single point]"
10,Cc1ccc(SC[C@H](c2ccccc2)N2CCN(CCc3ccccc3)CCC2=O)cc1,"inconclusive: 25.1 µM [inhibitor, full curve]"
11,COc1cccc(Nc2nc(CN3CCOCC3)nc3sc4c(c23)CCCC4)c1,"inconclusive: 17.8 µM [inhibitor, full curve]"
12,CC1CCN(C(=S)c2cn(Cc3cccc(F)c3)c3ccccc23)CC1,"inconclusive: 39.8 µM [inhibitor, full curve, poor fit]"
13,CN(C)c1ccc(CNC2C3CC4CC(C3)CC2C4)cc1 (stereo not given),"inconclusive: 50.1 µM [inhibitor, partial curve]"
14,COc1ccc(NCc2nnc(SCCN3CCCCC3)n2-c2ccc(C)cc2)cc1,"inconclusive: 50.1 µM [inhibitor, partial curve]"
15,O=C(CCNC(=O)c1ccc([N+](=O)[O-])cc1)Nc1cccc(S(=O)(=O)N2CCCCCC2)c1,active: 56.2 µM
16,Cc1c(NC(=O)C(=O)/C=C(\O)c2ccc(Cl)cc2)c(=O)n(-c2ccccc2)n1C,"inconclusive: 100 µM [inhibitor, single point]"
17,Nn1c(SC/C=C/c2ccccc2)nnc1-c1ccccn1,active: 11.2 µM
18,CCOC(=O)c1c(NC(=O)C(C)Sc2cn(CCNC(=O)c3ccc(OC)cc3)c3ccccc23)sc2c1CCC2 (stereo not given),"inconclusive: 2.51 µM [inhibitor, full curve, poor fit]"
19,CCCOCc1cc(CN2CCN(c3ccccc3OC)CC2)c(O)c2ncccc12,active: 4.47 µM
20,C=CCN1C(=O)/C(=C\c2cc(Br)c(OCc3ccccn3)c(OC)c2)SC1=S,"inconclusive: 5.01 µM [inhibitor, full curve, poor fit]"
21,CCSc1nc(C)c(C(C)=O)cc1C#N,"inconclusive: 89.1 µM [inhibitor, single point]"
22,Oc1ccc(Br)cc1C=Nc1ccc2[nH]ncc2c1,inactive
23,O=C(CCc1ccccc1)Nc1ccc(NC(=O)c2ccco2)cc1,inactive
24,COc1ccc(OC)c(S(=O)(=O)NCc2ccc3c(c2)CCN3C(=O)c2cccc(C)c2)c1,inactive

row,SMILES,Potency
1,C=CCNC(=O)c1onc(CSc2ccc(Cl)cc2)c1C(=O)O,"inconclusive: 100 µM [inhibitor, single point]"
2,CN(C(=O)CSc1nc2ccccc2[nH]1)c1ccc(F)cc1,inactive
3,COc1ccc2c(c1OC)C(=O)N(c1ccc(OCc3ccccc3)cc1)C2=O,"inconclusive: 89.1 µM [inhibitor, single point]"
4,CC(=O)N=c1sc(S(N)(=O)=O)nn1C,inactive
5,COc1ccc(N2CCN(C(=O)CN3C(=O)NC(C)(c4ccc5ccccc5c4)C3=O)CC2)cc1 (stereo not given),"inconclusive: 44.7 µM [inhibitor, partial curve]"
6,Cc1ccc2occ(CC(=O)Nc3c(C(=O)Nc4ccc(Cl)cc4)oc4ccccc34)c2c1,inactive
7,O=C(CC1N=C2c3ccccc3N=C(SCC(=O)Nc3ccccc3F)N2C1=O)NCc1ccc2c(c1)OCO2 (stereo not given),"inconclusive: 79.4 µM [inhibitor, single point]"
8,CN(Cc1ccccc1)S(=O)(=O)c1csc(C(N)=O)c1,"inconclusive: 89.1 µM [inhibitor, single point]"
9,Cc1cc(-c2ccccc2)nc(N/N=C/c2ccco2)n1,"inconclusive: 89.1 µM [inhibitor, single point]"
10,O=S(=O)(NC1CCC(CNS(=O)(=O)c2c(F)cccc2F)CC1)c1ccc2c(c1)OCCO2 (stereo not given),inactive
11,CCOc1ccc(C(=O)Nc2ccc3nc4c(c(Nc5ccccc5OC)c3c2)CCCC4)cc1,active: 17.8 µM
12,O=C(CSCc1nc2c(nnn2Cc2ccc(F)cc2)c(=O)[nH]1)Nc1c(Cl)cc(Cl)cc1Cl,"inconclusive: 89.1 µM [inhibitor, single point]"
13,COc1ccc(-n2c(-c3cc(-c4ccccc4)sc3N)n[nH]c2=S)cc1,inactive
14,Cc1c(C(=O)N2CCN(c3ccccc3)CC2)sc2ncnc(N3CCN(c4ccccn4)CC3)c12,"inconclusive: 89.1 µM [inhibitor, single point]"
15,COc1ccc(C(C(=O)NC2CCCCC2)N(C(=O)Cc2c[nH]c3ccccc23)c2ccccc2)cc1OC (stereo not given),"inconclusive: 35.5 µM [inhibitor, full curve, poor fit]"
16,CC1CCCC(C)N1C(=O)CN1C(=O)C(C)(C)Oc2ccc(C(=O)NC3CCCCC3)cc21 (stereo not given),inactive
17,Cc1c(C(=O)O)sc2nc(SCC(=O)Nc3ccc(S(=O)(=O)NCCCC(=O)O)cc3)[nH]c(=O)c12,"inconclusive: 89.1 µM [inhibitor, single point]"
18,COc1ccc(C(=O)O)cc1S(=O)(=O)NCc1ccccn1,active: 70.8 µM
19,O=C(Cc1cccs1)N1CCCC(c2nc3c(nnn3Cc3cccc(Cl)c3)c(=O)[nH]2)C1 (stereo not given),"inconclusive: 89.1 µM [inhibitor, single point]"
20,Cc1ccc(NC(=O)C2CCCN(c3ncnc4onc(C)c34)C2)cc1Cl (stereo not given),inactive
21,S=C1N(c2ccccc2)C(c2cccc3ccccc23)N2CCCN12 (stereo not given),"inconclusive: 31.6 µM [inhibitor, full curve, poor fit]"
22,O=C(c1csc(Nc2cccc3ccccc23)n1)N1CCCC1,active: 39.8 µM
23,CCOC(=O)N1CCN(S(=O)(=O)c2ccc(C(=O)Nc3nnc(CSC)o3)cc2)CC1,active: 79.4 µM
24,Cc1ccccc1N1C(=O)C(Cl)=C(N2CCN(c3ccccc3)CC2)C1=O,"inconclusive: 31.6 µM [inhibitor, partial curve]"

row,SMILES,Potency
1,CC12CC3CC(C)(C1)CC(C(=O)NC1=NCCS1)(C3)C2,"inconclusive: 7.08 µM [inhibitor, single point]"
2,O=[N+]([O-])c1ccc2nc(-c3cccnc3)[nH]c2c1,"inconclusive: 89.1 µM [inhibitor, single point]"
3,COc1ccc(/C=C2\SC(=S)N(CC(=O)OCC(=O)Nc3ccc(C)cc3Cl)C2=O)cc1,inactive
4,CC(=O)Nc1ccc(S(=O)(=O)Nc2nc3ccccc3nc2Nc2ccc(O)c(C(=O)O)c2)cc1,"inconclusive: 39.8 µM [inhibitor, single point]"
5,Cc1cccc(NC(=O)NCCN2CCCCC2)c1,"inconclusive: 39.8 µM [inhibitor, single point]"
6,O=C(CCCn1c(=O)[nH]c2ccsc2c1=O)N1CCN(c2ccc(Cl)cc2)CC1,inactive
7,CCOC(=O)c1sc2cccc(F)c2c1S(=O)(=O)Nc1ccccc1F,inactive
8,S=C(Nc1cccc(Cl)c1)N(CCCN1CCCC1)Cc1cccn1Cc1ccc(Cl)cc1,"inconclusive: 35.5 µM [inhibitor, partial curve]"
9,C#CCOCCOCCOCCNc1nc(N2CCN(C(=O)Cn3cc(CCCCN)nn3)CC2)nc(N2CCN(C(=O)[C@H](C)n3cc(CCCN=C(N)N)nn3)CC2)n1,"inconclusive: 89.1 µM [inhibitor, single point]"
10,COc1ccc(N2CCN(C(=O)c3ccc4c(c3)NC(=O)C(CSCc3c(F)cccc3Cl)N4)CC2)cc1 (stereo not given),inactive
11,Oc1ccc(Nc2nc(Cl)nc(NCc3ccco3)n2)cc1,"inconclusive: 70.8 µM [inhibitor, partial curve]"
12,COc1ccc(CCN(C)C(=O)C2CCN(Cc3cccc(OC)c3OC)CC2)cc1OC,"inconclusive: 79.4 µM [inhibitor, partial curve]"
13,Cc1cccc(CN2CCc3c([nH]c4ccccc34)C2C(C)(C)C)n1 (stereo not given),"inconclusive: 89.1 µM [inhibitor, single point]"
14,O=C(NCCc1c[nH]c2ccccc12)c1cc(Cl)c2c(c1)OCO2,"inconclusive: 44.7 µM [inhibitor, partial curve]"
15,CCOc1ccc(Nc2oc(-c3ccc(COc4ccc(C)cc4)o3)nc2C#N)cc1,"inconclusive: 79.4 µM [inhibitor, single point]"
16,COC(=O)CC1SC(=O)NC1=Nc1ccc(C)cc1 (stereo not given),inactive
17,CC(C)c1ccc(C2C3=C(CC(C)(C)CC3=O)NC3=C2C(=O)c2ccccc23)cc1 (stereo not given),"inconclusive: 25.1 µM [inhibitor, full curve]"
18,COc1cc(/C=N/NC(N)=S)ccc1OCc1ccc(C)cc1,"inconclusive: 44.7 µM [inhibitor, partial curve]"
19,C/C(=N\NC(=O)c1ccccc1O)c1ccc(NC(=O)Cc2ccccc2)cc1,"inconclusive: 56.2 µM [inhibitor, partial curve]"
20,COC(=O)CSC1=C(C#N)C(c2ccc(C)o2)CC(=O)N1 (stereo not given),inactive
21,Cn1ccc2cc(S(=O)(=O)N3CCCN(C(=O)Nc4ccc(Br)cc4)CC3)ccc21,inactive
22,CCN(CC)c1ccc(CN(C(=O)c2cc(OC)c(OC)c(OC)c2)C2CCS(=O)(=O)C2)cc1 (stereo not given),"inconclusive: 79.4 µM [inhibitor, single point]"
